The target of this experiment is T1, IL-2Rβ on YT-2C2 cells (human, UniProt P14784 27-551).
T1 construct: whole, on cells; YT-2C2 cells express about 20,000 IL-2Rβγ, so IL-2Rγ is also present; also called p75
T1 sequence (looked up): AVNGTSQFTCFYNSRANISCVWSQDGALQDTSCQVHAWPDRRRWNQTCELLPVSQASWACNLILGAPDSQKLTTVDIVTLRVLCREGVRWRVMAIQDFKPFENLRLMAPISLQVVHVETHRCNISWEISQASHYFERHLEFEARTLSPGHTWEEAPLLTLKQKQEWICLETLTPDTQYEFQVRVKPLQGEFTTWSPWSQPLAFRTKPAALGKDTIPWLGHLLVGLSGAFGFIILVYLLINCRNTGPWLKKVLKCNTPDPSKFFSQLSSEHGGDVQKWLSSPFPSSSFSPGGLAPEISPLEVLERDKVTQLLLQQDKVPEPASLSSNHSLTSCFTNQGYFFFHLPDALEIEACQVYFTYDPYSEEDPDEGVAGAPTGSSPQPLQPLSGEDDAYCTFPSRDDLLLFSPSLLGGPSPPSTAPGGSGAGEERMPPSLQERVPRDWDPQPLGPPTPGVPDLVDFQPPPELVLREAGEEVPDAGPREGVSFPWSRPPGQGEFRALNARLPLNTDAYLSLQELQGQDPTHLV
The experiment in a line: flow cytometry on YT-2C2 cells, on ice, anti-FLAG detection, global fit. In general terms: A flow cytometer gives signals particle by particle.

B1: IL-2 mutant C1 (I128T) (ligand, not shown: small tags and cut ends)
chain: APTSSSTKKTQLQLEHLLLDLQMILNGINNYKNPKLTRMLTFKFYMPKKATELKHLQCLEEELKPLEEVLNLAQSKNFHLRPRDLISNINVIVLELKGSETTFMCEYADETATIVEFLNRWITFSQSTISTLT
notes: Soluble form
What is called Kd is the constant that tells how readily two partners part at equilibrium. Read a high Kd as lower affinity. B1 came in with a Kd of 132 nM.

These data come from patent US20050142106A1 (MIT, published 2005).
